The results in this text go back to article PMC9911399, “Two distinct binding modes provide the RNA-binding protein RbFox with extraordinary sequence specificity”.

Positions count from the first letter of the chain named. The list shows a part of the results.

T1: RBFOX1 RRM (Homo sapiens, UniProt Q9NWB1 109-208)
T1 sequence: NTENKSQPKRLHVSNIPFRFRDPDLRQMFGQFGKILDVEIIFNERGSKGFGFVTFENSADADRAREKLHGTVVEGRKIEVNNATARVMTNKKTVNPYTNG

B1: AGCACCC (DNA:RNA)
RNA: GGGAGACCGGAAUUCAGAUUGUCCAGCACCCUUAAAUCCCGUCGUAGCCACCA
DNA 1: CAATCTGAATTCCGGTCTCCC
DNA 2: TGGTGGCTACGACGGGATT
B2: UUUCACC (DNA:RNA)
RNA: B1 RNA with A25U, G26U, C27U, A28C, C29A
DNA 1: CAATCTGAATTCCGGTCTCCC
DNA 2: TGGTGGCTACGACGGGATT
B3: AAACUUU (DNA:RNA)
RNA: B1 RNA with G26A, C27A, A28C, C29U, C30U, C31U
DNA 1: CAATCTGAATTCCGGTCTCCC
DNA 2: TGGTGGCTACGACGGGATT
B4: UGAUGGA (DNA:RNA)
RNA: B1 RNA with A25U, C27A, A28U, C29G, C30G, C31A
DNA 1: CAATCTGAATTCCGGTCTCCC
DNA 2: TGGTGGCTACGACGGGATT
B5: CUUGGCC (DNA:RNA)
RNA: B1 RNA with A25C, G26U, C27U, A28G, C29G
DNA 1: CAATCTGAATTCCGGTCTCCC
DNA 2: TGGTGGCTACGACGGGATT
B6: AGCACUG (DNA:RNA)
RNA: B1 RNA with C30U, C31G
DNA 1: CAATCTGAATTCCGGTCTCCC
DNA 2: TGGTGGCTACGACGGGATT
B7: GGCGUAA (DNA:RNA)
RNA: B1 RNA with A25G, A28G, C29U, C30A, C31A
DNA 1: CAATCTGAATTCCGGTCTCCC
DNA 2: TGGTGGCTACGACGGGATT
B8: UGAUACG (DNA:RNA)
RNA: B1 RNA with A25U, C27A, A28U, C29A, C31G
DNA 1: CAATCTGAATTCCGGTCTCCC
DNA 2: TGGTGGCTACGACGGGATT
B9: GAGAGUG (DNA:RNA)
RNA: B1 RNA with A25G, G26A, C27G, C29G, C30U, C31G
DNA 1: CAATCTGAATTCCGGTCTCCC
DNA 2: TGGTGGCTACGACGGGATT
B10: AUUGUUU (DNA:RNA)
RNA: B1 RNA with G26U, C27U, A28G, C29U, C30U, C31U
DNA 1: CAATCTGAATTCCGGTCTCCC
DNA 2: TGGTGGCTACGACGGGATT
B11: CUGACGG (DNA:RNA)
RNA: B1 RNA with A25C, G26U, C27G, C30G, C31G
DNA 1: CAATCTGAATTCCGGTCTCCC
DNA 2: TGGTGGCTACGACGGGATT
B12: UCGGAUA (DNA:RNA)
RNA: GGGAGACCGGAAUUCAGAUUGUCCUCGGAUAUUAAAUCCCGUCGUAGCCACCA
DNA 1: CAATCTGAATTCCGGTCTCCC
DNA 2: TGGTGGCTACGACGGGATT
B13: AUACAGU (DNA:RNA)
RNA: B1 RNA with G26U, C27A, A28C, C29A, C30G, C31U
DNA 1: CAATCTGAATTCCGGTCTCCC
DNA 2: TGGTGGCTACGACGGGATT
B14: CUCUUGG (DNA:RNA)
RNA: B1 RNA with A25C, G26U, A28U, C29U, C30G, C31G
DNA 1: CAATCTGAATTCCGGTCTCCC
DNA 2: TGGTGGCTACGACGGGATT
B15: GCCUUAG (DNA:RNA)
RNA: B1 RNA with A25G, G26C, A28U, C29U, C30A, C31G
DNA 1: CAATCTGAATTCCGGTCTCCC
DNA 2: TGGTGGCTACGACGGGATT
B16: CGCUGAU (DNA:RNA)
RNA: B1 RNA with A25C, A28U, C29G, C30A, C31U
DNA 1: CAATCTGAATTCCGGTCTCCC
DNA 2: TGGTGGCTACGACGGGATT
B17: UACGAGG (DNA:RNA)
RNA: B12 RNA with C26A, G27C, U30G, A31G
DNA 1: CAATCTGAATTCCGGTCTCCC
DNA 2: TGGTGGCTACGACGGGATT
B18: CACUUUA (DNA:RNA)
RNA: B12 RNA with U25C, C26A, G27C, G28U, A29U
DNA 1: CAATCTGAATTCCGGTCTCCC
DNA 2: TGGTGGCTACGACGGGATT
B19: GUGGAGC (DNA:RNA)
RNA: B12 RNA with U25G, C26U, U30G, A31C
DNA 1: CAATCTGAATTCCGGTCTCCC
DNA 2: TGGTGGCTACGACGGGATT
B20: GUAGGGC (DNA:RNA)
RNA: B1 RNA with A25G, G26U, C27A, A28G, C29G, C30G
DNA 1: CAATCTGAATTCCGGTCTCCC
DNA 2: TGGTGGCTACGACGGGATT
B21: GAAGACG (DNA:RNA)
RNA: B12 RNA with U25G, C26A, G27A, U30C, A31G
DNA 1: CAATCTGAATTCCGGTCTCCC
DNA 2: TGGTGGCTACGACGGGATT
B22: CUUCCGC (DNA:RNA)
RNA: B1 RNA with A25C, G26U, C27U, A28C, C30G
DNA 1: CAATCTGAATTCCGGTCTCCC
DNA 2: TGGTGGCTACGACGGGATT
B23: AAAACAC (DNA:RNA)
RNA: B1 RNA with G26A, C27A, C30A
DNA 1: CAATCTGAATTCCGGTCTCCC
DNA 2: TGGTGGCTACGACGGGATT
B24: CCCUAGC (DNA:RNA)
RNA: B1 RNA with A25C, G26C, A28U, C29A, C30G
DNA 1: CAATCTGAATTCCGGTCTCCC
DNA 2: TGGTGGCTACGACGGGATT
B25: ACGUUCA (DNA:RNA)
RNA: B12 RNA with U25A, G28U, A29U, U30C
DNA 1: CAATCTGAATTCCGGTCTCCC
DNA 2: TGGTGGCTACGACGGGATT
B26: CUCGUAG (DNA:RNA)
RNA: B1 RNA with A25C, G26U, A28G, C29U, C30A, C31G
DNA 1: CAATCTGAATTCCGGTCTCCC
DNA 2: TGGTGGCTACGACGGGATT
B27: AGCCGUG (DNA:RNA)
RNA: B1 RNA with A28C, C29G, C30U, C31G
DNA 1: CAATCTGAATTCCGGTCTCCC
DNA 2: TGGTGGCTACGACGGGATT
B28: ACAUGAU (DNA:RNA)
RNA: B1 RNA with G26C, C27A, A28U, C29G, C30A, C31U
DNA 1: CAATCTGAATTCCGGTCTCCC
DNA 2: TGGTGGCTACGACGGGATT
B29: CUGUAAU (DNA:RNA)
RNA: B12 RNA with U25C, C26U, G28U, U30A, A31U
DNA 1: CAATCTGAATTCCGGTCTCCC
DNA 2: TGGTGGCTACGACGGGATT
B30: CAGCAAG (DNA:RNA)
RNA: B12 RNA with U25C, C26A, G28C, U30A, A31G
DNA 1: CAATCTGAATTCCGGTCTCCC
DNA 2: TGGTGGCTACGACGGGATT
B31: GAUUGCG (DNA:RNA)
RNA: B1 RNA with A25G, G26A, C27U, A28U, C29G, C31G
DNA 1: CAATCTGAATTCCGGTCTCCC
DNA 2: TGGTGGCTACGACGGGATT

The target in this experiment is T1, RBFOX1 RRM. The experiment is described as follows: EMSA; HiTS-Eq, 1 nM pool, 10 min; buffer printed only for the single-RNA assays: 10 mM Tris pH 7.5, 150 mM NaCl, 3.4 mM EDTA, 0.001% NP-40, 30 C. Particulars: tags: His6 N-terminal (pET28a); label: 5' 32P. The gist of the method:
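A pool of RNA with 7 randomized nucleotides, 5′-radiolabelled and with DNA-annealed flanks, was equilibrated at 1 nM for 10 min in 50 µL with purified RbFox RRM, wild type or mutant, across increasing protein concentrations. Free RNA was separated by 8% native PAGE, excised, reverse-transcribed, barcoded by PCR and sequenced. Relative association constants were obtained from read-count changes of each RNA species versus the control reaction and normalised to the cognate motif.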
A general note: Mobility shift assays separate free from complexed probe on a gel.
For the molecule B1, the binding signal was 0.00759 KA relative to UGCAUGU.

Take B2: the binding signal was 0.00771 KA relative to UGCAUGU.

Take B3: the binding signal is 0.000979 KA relative to UGCAUGU.

Take B4: the binding signal was 0.00526 KA relative to UGCAUGU.

In the case of B5, the binding signal was 0.0188 KA relative to UGCAUGU.

For the molecule B6, the binding signal is 0.00891 KA relative to UGCAUGU.

Take B7: the binding signal is 0.0126 KA relative to UGCAUGU.

As for B8, the binding signal was 0.0173 KA relative to UGCAUGU.

Turning to B9, the binding signal is 0.0169 KA relative to UGCAUGU.

Take B10: the binding signal is 0.0146 KA relative to UGCAUGU.

For the molecule B11, the binding signal is 0.0159 KA relative to UGCAUGU.

Take B12: the binding signal is 0.00712 KA relative to UGCAUGU.

For B13, the binding signal is 0.000579 KA relative to UGCAUGU.

For B14, the binding signal is 0.0149 KA relative to UGCAUGU.

Consider B15, for which the binding signal is 0.0102 KA relative to UGCAUGU.

With B16, the binding signal was 0.0138 KA relative to UGCAUGU.

Regarding B17, the binding signal is 0.00815 KA relative to UGCAUGU.

As to B18, the binding signal is 0.00355 KA relative to UGCAUGU.

B19: the binding signal was 0.0151 KA relative to UGCAUGU.

On to B20, for which the binding signal is 0.00466 KA relative to UGCAUGU.

As for B21, the binding signal is 0.0102 KA relative to UGCAUGU.

Turning to B22, the binding signal is 0.0039 KA relative to UGCAUGU.

Turning to B23, the binding signal was 0.00144 KA relative to UGCAUGU.

As to B24, the binding signal was 0.00345 KA relative to UGCAUGU.

B25: the binding signal was 0.00409 KA relative to UGCAUGU.

Turning to B26, the binding signal was 0.0141 KA relative to UGCAUGU.

With B27, the binding signal was 0.0114 KA relative to UGCAUGU.

For B28, the binding signal is 0.00584 KA relative to UGCAUGU.

Regarding B29, the binding signal was 0.00859 KA relative to UGCAUGU.

On to B30, for which the binding signal was 0.0119 KA relative to UGCAUGU.

Regarding B31, the binding signal is 0.0264 KA relative to UGCAUGU.
